Results are given in words; binding and its absence hold for the method and conditions named. In cells and extracts the contact can be indirect. Some binding calls cover weakened binding; strength is not graded here. For some assays here: Tags and fused reporters may be left off the sequences shown.
What was measured:
[1] = biological target: endogenous RbBP5 (human (endogenous in HEK293, HMLE, MDA-MB-231, SUM1315, MDA-MB-436 and patient tumors)) (UniProt Q15291); test: co-IP; IP of endogenous RbBP5 (IgG control) from MDA-MB-231, SUM1315 and MDA-MB-436 lysates; blot with anti-FOXQ1 antibody
[2] = biological target: endogenous RbBP5 (human (endogenous in HEK293, HMLE, MDA-MB-231, SUM1315, MDA-MB-436 and patient tumors)) (UniProt Q15291); test: co-IP; IP of RbBP5 (IgG control) from patient tumor lysates (lung, ovarian, three TNBC); tissue extracted in 2% SDS for 10 min at 70 °C; blot with anti-FOXQ1 antibody
[3] = biological target: KMT2A/MLL1 (human (endogenous in HMLE)) (UniProt Q03164); test: co-IP; IP of each endogenous KMT2/MLL enzymatic subunit (IgG control) from HMLE/FOXQ1 lysate; blot with anti-V5 antibody for FOXQ1
[4] = biological target: KMT2B/MLL2 (human (endogenous in HMLE)) (UniProt Q9UMN6); test: as above
[5] = biological target: KMT2C/MLL3 (human (endogenous in HMLE)) (UniProt Q8NEZ4); test: as above
[6] = biological target: KMT2D/MLL4 (human (endogenous in HMLE)) (UniProt O14686); test: as above
[7] = biological target: KMT2F/SET1A (human (endogenous in HMLE)) (UniProt O15047); test: as above
[8] = biological target: KMT2G/SET1B (human (endogenous in HMLE)) (UniProt Q9UPS6); test: as above

Protein sequences, listed by entry. Tags and fused reporters are not part of them.
UniProt Q15291: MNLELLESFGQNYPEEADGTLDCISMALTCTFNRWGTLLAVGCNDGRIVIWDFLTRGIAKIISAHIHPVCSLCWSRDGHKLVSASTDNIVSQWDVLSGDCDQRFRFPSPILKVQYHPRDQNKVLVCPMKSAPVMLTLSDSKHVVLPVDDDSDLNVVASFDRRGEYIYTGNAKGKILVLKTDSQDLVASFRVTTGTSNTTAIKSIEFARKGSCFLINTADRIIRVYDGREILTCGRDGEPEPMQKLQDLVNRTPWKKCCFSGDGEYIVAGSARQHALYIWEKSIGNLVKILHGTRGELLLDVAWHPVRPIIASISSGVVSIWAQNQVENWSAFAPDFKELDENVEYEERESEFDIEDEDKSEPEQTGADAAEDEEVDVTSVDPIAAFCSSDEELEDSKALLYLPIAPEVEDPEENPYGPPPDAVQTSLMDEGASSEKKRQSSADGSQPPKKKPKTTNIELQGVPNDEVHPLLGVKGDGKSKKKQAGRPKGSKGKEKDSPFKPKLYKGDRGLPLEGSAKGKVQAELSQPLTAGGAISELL
UniProt Q03164: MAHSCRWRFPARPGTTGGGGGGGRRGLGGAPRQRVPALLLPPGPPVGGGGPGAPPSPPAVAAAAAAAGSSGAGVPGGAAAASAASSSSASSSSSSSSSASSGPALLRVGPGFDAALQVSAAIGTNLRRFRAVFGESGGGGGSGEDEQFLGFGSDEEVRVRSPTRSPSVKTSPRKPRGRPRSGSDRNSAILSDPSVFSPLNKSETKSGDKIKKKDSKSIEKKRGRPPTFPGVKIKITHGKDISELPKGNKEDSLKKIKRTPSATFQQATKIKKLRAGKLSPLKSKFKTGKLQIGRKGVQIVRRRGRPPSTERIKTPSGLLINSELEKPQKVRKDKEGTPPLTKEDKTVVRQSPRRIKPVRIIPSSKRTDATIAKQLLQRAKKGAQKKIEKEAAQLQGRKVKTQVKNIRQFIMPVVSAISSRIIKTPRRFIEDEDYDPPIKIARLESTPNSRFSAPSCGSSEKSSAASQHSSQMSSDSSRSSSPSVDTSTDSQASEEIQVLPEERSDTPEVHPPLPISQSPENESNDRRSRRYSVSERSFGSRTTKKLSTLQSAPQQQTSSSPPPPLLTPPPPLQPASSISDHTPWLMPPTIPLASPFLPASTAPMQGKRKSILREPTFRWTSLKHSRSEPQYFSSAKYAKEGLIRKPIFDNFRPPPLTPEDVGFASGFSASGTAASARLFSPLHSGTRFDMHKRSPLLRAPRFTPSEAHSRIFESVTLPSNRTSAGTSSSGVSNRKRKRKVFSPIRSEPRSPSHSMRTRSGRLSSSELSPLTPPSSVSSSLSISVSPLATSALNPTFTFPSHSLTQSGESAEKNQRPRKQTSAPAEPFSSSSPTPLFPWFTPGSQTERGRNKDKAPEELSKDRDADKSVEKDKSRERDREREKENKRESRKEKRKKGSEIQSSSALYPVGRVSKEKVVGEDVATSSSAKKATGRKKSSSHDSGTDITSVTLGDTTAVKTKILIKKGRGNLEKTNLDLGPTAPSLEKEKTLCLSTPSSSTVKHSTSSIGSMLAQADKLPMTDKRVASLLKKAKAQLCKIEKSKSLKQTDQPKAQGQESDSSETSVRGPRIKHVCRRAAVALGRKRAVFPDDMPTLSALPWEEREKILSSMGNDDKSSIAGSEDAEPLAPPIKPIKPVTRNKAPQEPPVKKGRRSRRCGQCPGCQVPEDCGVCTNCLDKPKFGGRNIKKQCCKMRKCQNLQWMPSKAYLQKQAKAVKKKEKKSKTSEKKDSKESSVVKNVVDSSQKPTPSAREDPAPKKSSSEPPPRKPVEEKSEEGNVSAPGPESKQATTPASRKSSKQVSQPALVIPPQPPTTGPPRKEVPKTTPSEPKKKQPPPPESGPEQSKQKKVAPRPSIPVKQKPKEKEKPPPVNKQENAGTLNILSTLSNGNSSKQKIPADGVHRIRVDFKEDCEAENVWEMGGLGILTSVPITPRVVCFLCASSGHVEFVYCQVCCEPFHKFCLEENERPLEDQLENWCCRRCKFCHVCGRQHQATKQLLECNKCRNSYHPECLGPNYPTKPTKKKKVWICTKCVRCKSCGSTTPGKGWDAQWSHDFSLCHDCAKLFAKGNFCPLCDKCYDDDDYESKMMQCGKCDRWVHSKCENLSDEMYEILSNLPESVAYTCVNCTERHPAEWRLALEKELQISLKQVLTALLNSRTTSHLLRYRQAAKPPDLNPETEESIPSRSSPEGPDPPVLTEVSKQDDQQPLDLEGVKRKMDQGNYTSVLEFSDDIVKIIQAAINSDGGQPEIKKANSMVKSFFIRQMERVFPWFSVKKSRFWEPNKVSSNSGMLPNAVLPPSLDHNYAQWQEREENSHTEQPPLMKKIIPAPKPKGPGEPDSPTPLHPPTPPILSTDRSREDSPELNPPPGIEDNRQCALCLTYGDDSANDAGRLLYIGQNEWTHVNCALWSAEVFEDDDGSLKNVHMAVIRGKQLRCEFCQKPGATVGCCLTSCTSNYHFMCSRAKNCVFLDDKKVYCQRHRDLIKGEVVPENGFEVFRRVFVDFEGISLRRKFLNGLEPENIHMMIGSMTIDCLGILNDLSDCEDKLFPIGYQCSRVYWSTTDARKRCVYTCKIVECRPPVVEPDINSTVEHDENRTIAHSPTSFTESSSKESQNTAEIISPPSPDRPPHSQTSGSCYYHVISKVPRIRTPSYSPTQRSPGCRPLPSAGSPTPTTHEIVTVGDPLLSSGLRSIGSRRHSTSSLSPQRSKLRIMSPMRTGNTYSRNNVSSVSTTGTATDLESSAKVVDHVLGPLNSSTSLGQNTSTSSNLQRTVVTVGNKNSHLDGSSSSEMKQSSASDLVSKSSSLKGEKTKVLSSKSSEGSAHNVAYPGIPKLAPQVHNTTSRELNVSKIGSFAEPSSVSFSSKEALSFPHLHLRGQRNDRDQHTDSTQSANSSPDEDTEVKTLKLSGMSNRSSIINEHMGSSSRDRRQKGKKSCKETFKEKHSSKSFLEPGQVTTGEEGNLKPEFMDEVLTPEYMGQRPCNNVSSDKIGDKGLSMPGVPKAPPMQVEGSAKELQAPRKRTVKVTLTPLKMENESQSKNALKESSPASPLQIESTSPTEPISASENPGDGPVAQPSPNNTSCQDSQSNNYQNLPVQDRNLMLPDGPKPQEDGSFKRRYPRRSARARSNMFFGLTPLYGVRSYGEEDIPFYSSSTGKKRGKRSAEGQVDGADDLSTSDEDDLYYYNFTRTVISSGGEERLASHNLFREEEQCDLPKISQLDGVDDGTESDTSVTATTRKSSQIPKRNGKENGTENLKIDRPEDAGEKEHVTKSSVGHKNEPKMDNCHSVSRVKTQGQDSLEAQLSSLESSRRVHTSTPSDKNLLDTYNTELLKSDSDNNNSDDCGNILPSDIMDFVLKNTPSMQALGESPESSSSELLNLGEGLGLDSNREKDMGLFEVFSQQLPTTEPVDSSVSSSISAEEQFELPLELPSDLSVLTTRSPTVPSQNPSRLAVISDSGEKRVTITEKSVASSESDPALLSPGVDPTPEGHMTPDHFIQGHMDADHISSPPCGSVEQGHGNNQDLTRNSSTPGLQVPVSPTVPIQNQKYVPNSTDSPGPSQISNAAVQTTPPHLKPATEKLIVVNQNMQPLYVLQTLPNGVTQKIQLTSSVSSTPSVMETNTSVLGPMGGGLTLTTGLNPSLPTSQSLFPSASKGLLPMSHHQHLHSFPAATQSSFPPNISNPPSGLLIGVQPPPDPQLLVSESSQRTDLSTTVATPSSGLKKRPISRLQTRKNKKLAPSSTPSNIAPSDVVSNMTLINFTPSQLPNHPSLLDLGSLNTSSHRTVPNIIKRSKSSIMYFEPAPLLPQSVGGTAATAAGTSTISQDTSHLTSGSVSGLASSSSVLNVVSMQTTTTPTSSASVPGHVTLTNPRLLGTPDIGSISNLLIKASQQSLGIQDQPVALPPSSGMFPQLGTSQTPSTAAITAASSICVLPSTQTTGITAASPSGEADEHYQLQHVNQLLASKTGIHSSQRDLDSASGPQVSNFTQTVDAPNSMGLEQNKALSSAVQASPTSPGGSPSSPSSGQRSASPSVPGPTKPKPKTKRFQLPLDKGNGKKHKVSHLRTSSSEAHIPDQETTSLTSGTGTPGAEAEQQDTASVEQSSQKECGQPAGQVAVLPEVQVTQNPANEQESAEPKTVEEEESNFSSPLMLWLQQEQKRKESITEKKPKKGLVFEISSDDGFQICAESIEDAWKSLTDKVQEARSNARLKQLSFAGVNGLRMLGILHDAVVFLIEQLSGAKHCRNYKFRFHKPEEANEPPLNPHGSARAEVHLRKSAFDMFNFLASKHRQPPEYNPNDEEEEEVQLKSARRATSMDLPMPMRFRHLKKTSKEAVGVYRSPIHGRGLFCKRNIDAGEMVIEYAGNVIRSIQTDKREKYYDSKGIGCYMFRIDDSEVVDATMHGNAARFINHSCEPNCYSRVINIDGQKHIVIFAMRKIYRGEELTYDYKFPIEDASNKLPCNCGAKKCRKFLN
UniProt Q9UPS6: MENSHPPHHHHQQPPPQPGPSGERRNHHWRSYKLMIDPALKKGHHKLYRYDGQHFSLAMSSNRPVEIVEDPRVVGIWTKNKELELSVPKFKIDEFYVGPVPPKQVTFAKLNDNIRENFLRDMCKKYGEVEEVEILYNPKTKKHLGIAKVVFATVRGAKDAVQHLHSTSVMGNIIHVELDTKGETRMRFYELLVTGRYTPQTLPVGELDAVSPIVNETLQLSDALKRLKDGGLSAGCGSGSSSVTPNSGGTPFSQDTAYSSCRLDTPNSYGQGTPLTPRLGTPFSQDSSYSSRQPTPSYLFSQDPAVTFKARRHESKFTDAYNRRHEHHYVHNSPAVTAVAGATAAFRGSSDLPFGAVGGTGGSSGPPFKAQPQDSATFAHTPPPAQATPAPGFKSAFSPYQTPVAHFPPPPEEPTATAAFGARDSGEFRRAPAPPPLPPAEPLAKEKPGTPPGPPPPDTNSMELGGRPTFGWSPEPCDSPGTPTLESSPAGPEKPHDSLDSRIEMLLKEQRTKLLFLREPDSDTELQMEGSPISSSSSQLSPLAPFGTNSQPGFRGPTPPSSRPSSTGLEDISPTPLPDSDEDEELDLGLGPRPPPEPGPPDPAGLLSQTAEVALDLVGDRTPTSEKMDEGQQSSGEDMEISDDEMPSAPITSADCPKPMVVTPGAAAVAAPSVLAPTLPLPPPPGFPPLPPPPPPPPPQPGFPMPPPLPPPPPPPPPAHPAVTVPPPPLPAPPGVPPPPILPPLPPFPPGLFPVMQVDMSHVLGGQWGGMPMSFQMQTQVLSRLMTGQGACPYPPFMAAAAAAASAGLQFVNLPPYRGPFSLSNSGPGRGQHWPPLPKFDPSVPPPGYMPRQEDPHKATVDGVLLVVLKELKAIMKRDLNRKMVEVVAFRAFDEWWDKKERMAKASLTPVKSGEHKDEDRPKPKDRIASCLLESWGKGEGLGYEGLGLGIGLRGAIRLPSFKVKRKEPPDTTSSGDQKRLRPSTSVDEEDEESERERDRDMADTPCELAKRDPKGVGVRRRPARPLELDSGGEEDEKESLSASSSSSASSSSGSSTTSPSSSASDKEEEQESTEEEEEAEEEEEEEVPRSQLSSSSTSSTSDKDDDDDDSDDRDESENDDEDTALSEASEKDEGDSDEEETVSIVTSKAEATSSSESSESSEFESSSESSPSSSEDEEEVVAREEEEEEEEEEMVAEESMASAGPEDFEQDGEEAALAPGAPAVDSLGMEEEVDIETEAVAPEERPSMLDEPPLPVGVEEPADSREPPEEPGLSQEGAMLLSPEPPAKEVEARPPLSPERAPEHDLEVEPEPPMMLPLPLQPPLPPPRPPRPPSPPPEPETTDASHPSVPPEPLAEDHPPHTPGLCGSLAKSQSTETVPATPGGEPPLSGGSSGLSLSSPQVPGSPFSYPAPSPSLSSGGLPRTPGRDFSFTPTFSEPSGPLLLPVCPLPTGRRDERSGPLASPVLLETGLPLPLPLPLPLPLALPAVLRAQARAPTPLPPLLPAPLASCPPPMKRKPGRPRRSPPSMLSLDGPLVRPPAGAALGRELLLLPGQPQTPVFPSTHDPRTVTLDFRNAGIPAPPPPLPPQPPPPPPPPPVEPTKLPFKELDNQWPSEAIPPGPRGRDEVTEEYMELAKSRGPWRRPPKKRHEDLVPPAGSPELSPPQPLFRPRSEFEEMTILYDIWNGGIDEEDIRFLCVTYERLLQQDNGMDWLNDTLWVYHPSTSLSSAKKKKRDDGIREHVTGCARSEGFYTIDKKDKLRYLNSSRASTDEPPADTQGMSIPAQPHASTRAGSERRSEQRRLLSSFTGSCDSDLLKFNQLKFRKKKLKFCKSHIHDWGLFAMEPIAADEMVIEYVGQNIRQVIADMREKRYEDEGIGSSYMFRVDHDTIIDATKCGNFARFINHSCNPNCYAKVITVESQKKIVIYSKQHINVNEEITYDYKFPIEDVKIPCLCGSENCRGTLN

binding [1] | binding [2] | binding [3] | binding [4] | binding [5] | binding [6] | binding [7] | binding [8] | Binder
binds | binds |  |  |  |  |  |  | endogenous FOXQ1 (protein, UniProt Q9C009 1-403) MKLEVFVPRAAHGDKQGSDLEGAGGSDAPSPLSAAGDDSLGSDGDCAANSPAAGGGARDTQGDGEQSAGGGPGAEEAIPAAAAAAVVAEGAEAGAAGPGAGGAGSGEGARSKPYTRRPKPPYSYIALIAMAIRDSAGGRLTLAEINEYLMGKFPFFRGSYTGWRNSVRHNLSLNDCFVKVLRDPSRPWGKDNYWMLNPNSEYTFADGVFRRRRKRLSHRAPVPAPGLRPEEAPGLPAAPPPAPAAPASPRMRSPARQEERASPAGKFSSSFAIDSILRKPFRSRRLRDTAPGTTLQWGAAPCPPLPAFPALLPAAPCRALLPLCAYGAGEPARLGAREAEVPPTAPPLLLAPLPAAAPAKPLRGPAAGGAHLYCPLRLPAALQAASVRRPGPHLPYPVETLLA
 |  | binds | no binding | no binding | no binding | no binding | no binding | FOXQ1 wild type with C-terminal V5-epitope tag (protein, UniProt Q9C009 1-403) MKLEVFVPRAAHGDKQGSDLEGAGGSDAPSPLSAAGDDSLGSDGDCAANSPAAGGGARDTQGDGEQSAGGGPGAEEAIPAAAAAAVVAEGAEAGAAGPGAGGAGSGEGARSKPYTRRPKPPYSYIALIAMAIRDSAGGRLTLAEINEYLMGKFPFFRGSYTGWRNSVRHNLSLNDCFVKVLRDPSRPWGKDNYWMLNPNSEYTFADGVFRRRRKRLSHRAPVPAPGLRPEEAPGLPAAPPPAPAAPASPRMRSPARQEERASPAGKFSSSFAIDSILRKPFRSRRLRDTAPGTTLQWGAAPCPPLPAFPALLPAAPCRALLPLCAYGAGEPARLGAREAEVPPTAPPLLLAPLPAAAPAKPLRGPAAGGAHLYCPLRLPAALQAASVRRPGPHLPYPVETLLA
